This is one part of the list.
Key:
Assay in all cases: glycan array binding signal (z-score within array); higher = stronger binding
Settings in all cases: glycan notation: IUPAC condensed, linker removed
[1] = target: Gal(b1-3)GlcNAc(b1-2)Man(a1-3)[GlcNAc(b1-4)][Gal(b1-3)GlcNAc(b1-2)Man(a1-6)]Man(b1-4)GlcNAc(b1-4)GlcNAc
Outline: (§1)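 The binding signal is a Z-score computed within each array and averaged over linkers. Arrays of the same protein sequence at different concentrations or buffers were also averaged together. Data originate from 3228 arrays in the Consortium for Functional Glycomics database, kept only where the protein sequence was available.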

[2] = target: Gal(b1-3)GlcNAc(b1-2)[Gal(b1-3)GlcNAc(b1-6)]Man(a1-6)[Gal(b1-3)GlcNAc(b1-2)Man(a1-3)]Man(b1-4)GlcNAc(b1-4)GlcNAc
Outline: as §1

[3] = target: Gal(b1-3)GlcNAc(b1-3)Gal(b1-3)GlcNAc
Outline: as §1

[4] = target: Gal(b1-3)GlcNAc(b1-3)Gal(b1-4)Glc
Outline: as §1

[5] = target: Gal(b1-3)GlcNAc(b1-3)Gal(b1-4)GlcNAc
Outline: as §1

[6] = target: Gal(b1-3)GlcNAc(b1-3)Gal(b1-4)GlcNAc(b1-2)Man(a1-3)[Gal(b1-3)GlcNAc(b1-3)Gal(b1-4)GlcNAc(b1-2)Man(a1-6)]Man(b1-4)GlcNAc(b1-4)GlcNAc
Outline: as §1

[7] = target: Gal(b1-3)GlcNAc(b1-3)Gal(b1-4)GlcNAc(b1-2)[Gal(b1-3)GlcNAc(b1-3)Gal(b1-4)GlcNAc(b1-6)]Man(a1-6)[Gal(b1-3)GlcNAc(b1-3)Gal(b1-4)GlcNAc(b1-2)Man(a1-3)]Man(b1-4)GlcNAc(b1-4)[Fuc(a1-6)]GlcNAc
Outline: as §1

[8] = target: Gal(b1-3)GlcNAc(b1-3)Gal(b1-4)GlcNAc(b1-3)Gal(b1-4)GlcNAc(b1-2)[Gal(b1-3)GlcNAc(b1-3)Gal(b1-4)GlcNAc(b1-3)Gal(b1-4)GlcNAc(b1-6)]Man(a1-6)[Gal(b1-3)GlcNAc(b1-3)Gal(b1-4)GlcNAc(b1-3)Gal(b1-4)GlcNAc(b1-2)Man(a1-3)]Man(b1-4)GlcNAc(b1-4)[Fuc(a1-6)]GlcNAc
Outline: as §1

[9] = target: Gal(b1-3)GlcNAc(b1-3)Gal(b1-4)GlcNAc(b1-6)[Gal(b1-3)GlcNAc(b1-3)]Gal(b1-4)Glc
Outline: as §1

[10] = target: Gal(b1-3)GlcNAc(b1-3)Gal(b1-4)[Fuc(a1-3)]GlcNAc
Outline: as §1

[11] = target: Gal(b1-3)GlcNAc(b1-3)Gal(b1-4)[Fuc(a1-3)]GlcNAc(b1-6)[Gal(b1-3)GlcNAc(b1-3)]Gal(b1-4)Glc
Outline: as §1

[12] = target: Gal(b1-3)GlcNAc(b1-3)GalNAc
Outline: as §1

[13] = target: Gal(b1-3)GlcNAc(b1-6)Gal(b1-4)GlcNAc
Outline: as §1

[14] = target: Gal(b1-3)GlcNAc(b1-6)GalNAc
Outline: as §1

[15] = target: Gal(b1-3)GlcNAc(b1-6)[Gal(b1-3)]GalNAc
Outline: as §1

Gal(b1-3)GlcNAc6S = target: Gal(b1-3)GlcNAc6S
Outline: as §1

[16] = target: Gal(b1-3)[Fuc(a1-4)]GlcNAc
Outline: as §1

[17] = target: Gal(b1-3)[Fuc(a1-4)]GlcNAc(b1-2)Man
Outline: as §1

[18] = target: Gal(b1-3)[Fuc(a1-4)]GlcNAc(b1-2)Man(a1-3)[Gal(b1-3)[Fuc(a1-4)]GlcNAc(b1-2)Man(a1-6)]Man(b1-4)GlcNAc(b1-4)[Fuc(a1-6)]GlcNAc
Outline: as §1

[19] = target: Gal(b1-3)[Fuc(a1-4)]GlcNAc(b1-3)Gal(b1-3)[Fuc(a1-4)]GlcNAc
Outline: as §1

[20] = target: Gal(b1-3)[Fuc(a1-4)]GlcNAc(b1-3)Gal(b1-4)[Fuc(a1-3)]GlcNAc
Outline: as §1

[21] = target: Gal(b1-3)[Fuc(a1-4)]GlcNAc(b1-6)GalNAc
Outline: as §1

[22] = target: Gal(b1-3)[GlcNAc(b1-6)]GalNAc
Outline: as §1

[23] = target: Gal(b1-3)[Neu5Ac(a2-6)]GalNAc
Outline: as §1

[24] = target: Gal(b1-3)[Neu5Ac(a2-6)]GlcNAc(b1-4)Gal(b1-4)Glc
Outline: as §1

[25] = target: Gal(b1-3)[Neu5Ac(b2-6)]GalNAc
Outline: as §1

Gal(b1-4)Gal = target: Gal(b1-4)Gal
Outline: as §1

[26] = target: Gal(b1-4)GalNAc(a1-3)[Fuc(a1-2)]Gal(b1-4)GlcNAc
Outline: as §1

[27] = target: Gal(b1-4)GalNAc(b1-3)[Fuc(a1-2)]Gal(b1-4)GlcNAc
Outline: as §1

Gal(b1-4)Glc = target: Gal(b1-4)Glc
Outline: as §1

B1: Pbx2 (Cryptococcus neoformans) (protein)
chain: AVSPLPSSTELVFYSQKRRRRRICSTATGSLSTPDPTRMTSDPYKRVGMRFSSVPRLLITFLSLLLLVSAAPPCVRFADYDSINQMFIDGGPGTKVLLCPNRLYRLSGPIIFTAADQEIATYGYPTGSERAVLRVEGRNTATAIQGDCRRCARVSVKNLVVDGNRKKLGRMRDFQLATGLVVLGGNEGQSIQNSWIKNPRGFTAIHIREGDKLQCSGARVEKNEIGPVGEEYDPEKDGDDPEMSPLGRPLADGVSIACRDSFIRDNTFRDNTDAAIVVYCSPGTLIHANHIFAQSLSAMAGILMVDSTPFNGDYTGTVVRSNIIDAVSRTIRVGIGIGPTVWSDDTETILTGGSVIGNGLKGRYMGYGIAAAGLKQWTIKDNWDEAKHEGRKSARCFDEPVNPDPIGLLYNRPTMEDCTVQSGFADHDFQYLVCIDGLYDKTNPPKHDPAPLAHDPSPTNAQEDNTVQQDGGDSKSKSIEQPREASDIEAEPSVEKMFSTGSEMMDDVLEHSHQRMHEVIDHLSRRIDILGAASAGKGSGDSKISEVLDPAMSSHLEKLQRKIEHLEFSLRSQIETAIQLRSAIQGWDQEMALVTDWEYDILLDVRHKLELSSYPHDQPLDPRLMRGQSYLNNEAVLVDDHSHPSLEGENLRAMSDRARLNANEEA
glycan array binding signal (z-score) [1]: 0.625 | glycan array binding signal (z-score) [2]: -0.131 | glycan array binding signal (z-score) [3]: -0.343 | glycan array binding signal (z-score) [4]: -0.314 | glycan array binding signal (z-score) [5]: -0.583 | glycan array binding signal (z-score) [6]: -0.266 | glycan array binding signal (z-score) [7]: 0.251 | glycan array binding signal (z-score) [8]: 1.58 | glycan array binding signal (z-score) [9]: -0.258 | glycan array binding signal (z-score) [10]: 0.518 | glycan array binding signal (z-score) [11]: -0.346 | glycan array binding signal (z-score) [12]: 0.091 | glycan array binding signal (z-score) [13]: -0.224 | glycan array binding signal (z-score) [14]: 0.462 | glycan array binding signal (z-score) [15]: -0.178 | glycan array binding signal (z-score) (Gal(b1-3)GlcNAc6S): 0.443 | glycan array binding signal (z-score) [16]: -0.254 | glycan array binding signal (z-score) [17]: 0.503 | glycan array binding signal (z-score) [18]: -0.088 | glycan array binding signal (z-score) [19]: -0.63 | glycan array binding signal (z-score) [20]: -0.432 | glycan array binding signal (z-score) [21]: 0.635 | glycan array binding signal (z-score) [22]: -0.302 | glycan array binding signal (z-score) [23]: -0.416 | glycan array binding signal (z-score) [24]: -0.058 | glycan array binding signal (z-score) [25]: -0.192 | glycan array binding signal (z-score) (Gal(b1-4)Gal): 0.651 | glycan array binding signal (z-score) [26]: -0.609 | glycan array binding signal (z-score) [27]: -0.636 | glycan array binding signal (z-score) (Gal(b1-4)Glc): -0.114
